PubChem BioAssay AID652104 (National Center for Advancing Translational Sciences (NCATS), 2013)
Screen size: about 410,000 compounds; about 7,200 (1.8%) were called active. Inconclusive results, whose numbers are uncertain, are shown with a selection of clear calls. Calls follow the shape of the dose curve; as a rule, active = well fitted activation curve with a large enough effect; inconclusive = small, poorly fitted or top-dose-only effect, or another doubt; inactive = no such curve, though single readings can be large or run the other way. Where the call is inconclusive, the potency comes from a doubtful curve fit.

Test: qHTS of TDP-43 Inhibitors; also: nearly all actives have a fitted effect of over 50% in size; as to growth rescue (activation): % of control where 0% means no effect
Conditions: TDP-43 expressing yeast growth rescue, BacTiter-Glo, 24 h; growth rescue (activation): at 46.1 µM (top of the series) unless noted
Outline: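 Cell-based yeast growth screen: TDP-43 expression induced in galactose, inoculum OD600=0.02 after raffinose pregrowth to mid-log. Read-out BacTiter-Glo luminescence at 24 hr, 30 deg C; inhibition of toxicity seen as signal increase.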
Potency is read from the fitted curve at half-maximal effect; tags tell the direction and shape of the fitted curve.

Potency, inconclusive:
C=CCn1c(N2CCN(c3ccc(OC)cc3)CC2)nc2c1c(=O)n(C)c(=O)n2C 17.8 µM [activator, partial curve]
O=C(Nc1nccs1)c1cccc2ccccc12 11.2 µM [activator, partial curve]
O=C(Nc1ccccc1F)C(Cc1ccccc1)n1cccc1 (centres undefined) 35.5 µM [activator, single point]
O=C(Nc1ccc(OC(F)(F)F)cc1)c1cnccn1 7.94 µM [activator, partial curve]
Fc1ccc(NC(=S)N/N=C/c2ccc(F)c(F)c2)c(F)c1 2.51 µM [activator, full curve]
CCOc1ccc(S(=O)(=O)N(CC(=O)NCCSCc2ccc(C)cc2)c2ccccc2)cc1 6.31 µM [activator, partial curve]
Cc1nc(N)nc(OCC(F)(F)C(F)F)c1Br 31.6 µM [activator, single point]
COc1ccc(C2/C=C\CN(C(=O)c3ccccc3)CC(=O)N2Cc2ccc(F)cc2)cc1 (centres undefined) 35.5 µM [activator, single point]
CCn1ccc2cc(S(=O)(=O)N3CCCN(C(=O)Nc4ccccc4C(F)(F)F)CC3)ccc21 35.5 µM [activator, partial curve]
COc1ccc(CC(=O)OCC(=O)c2ccc(F)cc2)cc1 25.1 µM [activator, partial curve]
OC[C@@H](O)[C@@H](O)[C@H](O)[C@H](O)CO 35.5 µM [activator, partial curve]
CC(C)(C)CN1C(N)=NC[C@@H]1c1ccccc1 3.16 µM [activator, partial curve]
CC(NC(=O)CCSc1nc(-c2ccco2)cc(C(F)(F)F)n1)c1ccccc1 (centres undefined) 35.5 µM [activator, single point]
CC(=O)Oc1ccc(/C=C2/C(=O)N(c3ccccc3)N=C2C)cc1 35.5 µM [activator, single point]
O=C(NNC(=S)Nc1ccc(Cl)cc1)c1ccccc1 14.1 µM [activator, partial curve]
Cc1ccc(C)n1-c1nnc(N2CCC(C(=O)Nc3ccccc3Br)CC2)s1 35.5 µM [activator, single point]
CCC1(c2ccccc2)NC(=S)N(c2cccc(C)c2C)N1 (centres undefined) 28.2 µM [activator, partial curve]
CCOc1ccc(-c2csc(NC(=O)c3ccco3)n2)cc1 3.98 µM [activator, full curve]
CCCCCCCCOC(=O)c1nc(Cl)c(Cl)c(N)c1Cl 14.1 µM [activator, partial curve]
COc1ccc(-n2nc3ccccc3n2)cc1 35.5 µM [activator, partial curve, poor fit]
Cc1cccc(N2CCN(C(=O)C3CCCCC3)CC2)c1C 25.1 µM [activator, single point]
CC1(C)Cc2c(cnn2-c2ccc(F)cc2)C(NC(=O)c2ccc(=O)oc2)C1 (centres undefined) 20 µM [activator, partial curve]
Cc1ccc(C)c(N2CCN(C(=O)c3ccc(CS(=O)Cc4cccc(Cl)c4)o3)CC2)c1 (centres undefined) 31.6 µM [activator, single point]
O=C(COc1ccc2c(c1)CCC2)N1CCN(c2ccccc2F)CC1 7.08 µM [activator, full curve, poor fit]
Cc1cc(Nc2ccc(Br)cc2)n2nc(C)nc2n1 35.5 µM [activator, partial curve]
C=Cn1c(C(=O)O)cc(CC)c1-c1ccccc1 20 µM [activator, single point]
COc1cc(C=O)ccc1OCCSc1ccc(C)cc1 15.8 µM [activator, single point]
Cc1ccc(/C=C(\C#N)C(=O)Nc2ccccn2)o1 11.2 µM [activator, partial curve]
CC(C)N(c1ccccc1)c1ccc(NC(=O)CCl)cc1 22.4 µM [activator, single point]
CC(C)=CCc1c([C@@H]2CCc3ccc(O)cc3O2)cc2c(c1O)OC(C)(C)C=C2 0.316 µM [activator, full curve, poor fit]
Cc1cc2n(n1)SC(Nc1ccc(F)c(Cl)c1)N2 (centres undefined) 31.6 µM [activator, single point]
Cc1ccc(Cl)cc1N1CCN(C(=O)C2CCC(=O)N(C3CCCCCC3)C2)CC1 (centres undefined) 31.6 µM [activator, single point]
CCOc1ccc2ncc3c(-c4ccccc4)nn(CC(=O)Nc4cccc(F)c4)c3c2c1 6.31 µM [activator, partial curve]
S=C(NCCC(c1ccccc1)c1ccccc1)Nc1ccc(Cl)cc1 17.8 µM [activator, single point]
Cc1ccc2c(c1)c(N=NC(N)=O)c(O)n2C 0.316 µM [activator, full curve, poor fit]
CCn1nc(NC(=O)c2cccs2)c2cc3ccccc3nc21 0.708 µM [activator, full curve]
O=[N+]([O-])c1cccc(S(=O)(=O)N2CCCCC2)c1 8.91 µM [activator, partial curve]
CC#CC#Cc1cccc(=O)o1 35.5 µM [activator, single point]
O=C(COC(=O)c1c(Cl)ccc(Cl)c1Cl)NCC1CCCO1 (centres undefined) 35.5 µM [activator, single point]
COC(=O)c1ccc(NC(=O)C2CCCO2)cc1 (centres undefined) 17.8 µM [activator, single point]
CCN(C(=O)CSc1nnc(-c2ccc(Cl)cc2)o1)c1ccccc1 35.5 µM [activator, partial curve, poor fit]
CCc1cc(-c2nc(N)ncc2-c2ccc(Br)cc2)c(O)cc1OC 25.1 µM [activator, single point]
COc1ccc2nc(NC(=O)c3ccc(F)cc3)sc2c1 0.708 µM [activator, full curve]
CC(Oc1ccc(Br)cc1Br)C(=O)Nc1cccnc1Cl (centres undefined) 10 µM [activator, single point]
COc1cccc(CNC(=O)Cn2cc3c(n2)-c2c(oc(C(=O)N4CCOCC4)c2C)CC3)c1 3.55 µM [activator, partial curve]
O=C(NC1CCCC1)C1C(c2ccc(C(F)(F)F)cc2)=Nc2ccccc2N1C(=O)c1cc2ccccc2[nH]1 (centres undefined) 6.31 µM [activator, partial curve]
COC(=O)c1ccccc1NC(=O)CSc1nc2sc3c(c2c(=O)[nH]1)CCCC3 25.1 µM [activator, single point]
Cc1ccc(-c2cc(Cc3ccc(F)cc3)c(=O)[nH]n2)cc1 35.5 µM [activator, single point]
COc1cccc(CNC(=O)c2cccnc2Sc2ccc(C)cc2C)c1 31.6 µM [activator, single point]
Cc1ccc(C(=O)c2cn(Cc3ccc(F)cc3)c3nc(C)ccc3c2=O)cc1 8.91 µM [activator, partial curve]

Potency, active:
Cc1ccc(C(=O)OCc2nnc(-c3ccccc3)o2)o1 17.8 µM
CCN(CC)C(=O)CSc1ncnc2c1cnn2-c1ccccc1 15.8 µM
CC(=O)c1ccc(Sc2ccccc2)c([N+](=O)[O-])c1 11.2 µM
CC(NCCN(C)C)C1CCC2C3CCc4cc(O)ccc4C3CCC12C (centres undefined) 0.316 µM
COc1cc(OC)c2c(=O)cc(-c3ccccc3)oc2c1 35.5 µM
N/C(=N\OC(=O)CCC1CCCC1)c1cccc([N+](=O)[O-])c1 20 µM

Growth rescue (activation), inactive:
O=C(Nc1cccc2ccccc12)N1CC=CCC1 5.76%
CCCCCC(=O)Nc1ccc(-c2cn3cccnc3n2)cc1 -7.99%
O=C(CC1N=C2c3ccccc3N=C(SCC(=O)Nc3cccc(Cl)c3)N2C1=O)NCc1cccs1 (centres undefined) 1.16%
Cc1cccc(Cn2c(=O)n(CCC(=O)NCc3ccc4c(c3)OCO4)c(=O)c3sccc32)c1 -5.2%
Cc1ccccc1-n1c(SC(C)C(=O)NCC2CCCO2)nnc1-c1ccncc1 (centres undefined) -16.1%
CC(=O)c1ccc(C(=O)N(CCCN(C)C)c2nc3c(C)c(C)ccc3s2)cc1 -10.1%
CCc1ccccc1N(C)C(=O)C1CCCN(c2ncnc3onc(-c4ccc(F)cc4)c23)C1 (centres undefined) 13.9%
CC(=O)c1c(C)nc2ccccc2c1N -2.56%
Cc1cc(OCCn2c(C3CC(=O)N(Cc4ccc(F)cc4)C3)nc3ccccc32)ccc1Cl (centres undefined) 3.61%
O=C(Cn1c(=O)oc2ccccc21)NCc1ccccc1Cl 20.7%
COc1ccc(CC(=O)Nc2ccc(F)c(S(=O)(=O)N3CCOCC3)c2)cc1 4.55%

Growth rescue (activation), inconclusive:
N/C(Cc1ccc(Cl)cc1Cl)=N\OC(=O)Cc1ccccc1 -93.5% [activator]
COc1ccc2c(C)cc(=O)oc2c1 24.6% [activator]
